Measured values as given in a collection of fitness landscapes (doi:10.1126/science.1257360).
The list shows a part of the results.

B1: PhoQ; a variant is named by its letters at X, in order, P23837 (parent)
chain: MKKLLRLFFPLSLRVRFLLATAAVVLVLSLAYGMVALIGYSVSFDKTTFRLLRGESNLFYTLAKWENNKLHVELPENIDKQSPTMTLIYDENGQLLWAQRDVPWLMKMIQPDWLKSNGFHEIEADVNDTSLLLSGDHSIQQQLQEVREDDDDAEMTHSVAVNVYPATSRMPKLTIVVVDTIPVELKSSYMVWSWFIYVLSANLLLVIPLLWVAAWWSLRPIEALAKEVRELEEHNRELLNPATTRELTSLVRNLNRLLKSERERYDKYRTTLTDLTHSLKTPLXXLQXXLRSLRSEKMSVSDAEPVMLEQISRISQQIGYYLHRASMRGGTLLSRELHPVAPLLDNLTSALNKVYQRKGVNISLDISPEISFVGEQNDFVEVMGNVLDNACKYCLEFVEISARQTDEHLYIVVEDDGPGIPLSKREVIFDRGQRVDTLRPGQGVGLAVAREITEQYEGKIVAGESMLGGARMEVIFGRQHSAPKDE

Variants of: B1
Assay: enrichment ratio after two sorts for PhoP signalling (ratio (wild type AVST 3.29)); higher = more functional
Settings: with PhoP (E. coli)

Variant	enrichment ratio
GTFE	≤ 0.25
LGWL	1.33
MPFG	≤ 0.25
TCMQ	6.1
YPWT	≤ 0.25
NAKN	≤ 0.25
QNRD	≤ 0.25
VKGV	≤ 0.25
MFYK	≤ 0.25
IARE	≤ 0.25
STLA	10.9
EVKN	≤ 0.25
WKNR	≤ 0.25
IGKC	≤ 0.25
PDIQ	≤ 0.25
HGPC	≤ 0.25
VAMW	≤ 0.25
YEVS	0.342
LVYQ	0.888
PRIA	≤ 0.25
FLEK	≤ 0.25
FTYI	≤ 0.25
ELIM	≤ 0.25
YDVL	≤ 0.25

Variant	enrichment ratio
WWPN	≤ 0.25
ETDY	≤ 0.25
PCSM	≤ 0.25
VMHY	≤ 0.25
AFMW	≤ 0.25
VYLR	≤ 0.25
KLEN	≤ 0.25
LQDI	≤ 0.25
VRLS	≤ 0.25
LSDK	≤ 0.25
VMSY	≤ 0.25
YTRF	≤ 0.25
MRNM	≤ 0.25
LIAD	≤ 0.25
EKMS	≤ 0.25
IYQP	≤ 0.25
SPKK	≤ 0.25
QHCP	≤ 0.25
QTGK	≤ 0.25
FIMS	≤ 0.25
HRKD	≤ 0.25
FGYI	≤ 0.25
IMLV	≤ 0.25
LCMA	≤ 0.25

Variant	enrichment ratio
KGTV	≤ 0.25
HNAE	≤ 0.25
LYNP	≤ 0.25
HWDS	≤ 0.25
WYIQ	≤ 0.25
MPKI	≤ 0.25
IDQD	≤ 0.25
YNIC	≤ 0.25
DWFW	≤ 0.25
ETRC	≤ 0.25
PGGL	≤ 0.25
IMPQ	≤ 0.25
IGGW	≤ 0.25
TTNV	7.65
YMCE	≤ 0.25
PLMY	≤ 0.25
LYDS	≤ 0.25
KLKN	≤ 0.25
FVNC	≤ 0.25
MNFQ	4.7
WMKD	≤ 0.25
DVHY	≤ 0.25
QGQY	≤ 0.25
VYYM	≤ 0.25

Variant	enrichment ratio
PKMT	≤ 0.25
INCM	1.22
KFTY	≤ 0.25
WDWP	≤ 0.25
TYCM	0.414
QFLM	≤ 0.25
YKGG	≤ 0.25
YMTH	≤ 0.25
TALQ	15.2
FMFQ	≤ 0.25
EGIS	≤ 0.25
RMPV	≤ 0.25
SRYG	≤ 0.25
RPAN	≤ 0.25
FCYD	≤ 0.25
HPHW	≤ 0.25
YAYA	≤ 0.25
MMTY	≤ 0.25
NWQL	≤ 0.25
IGCD	≤ 0.25
MQCV	4.03
MTQD	≤ 0.25
SDPP	≤ 0.25
KFIS	≤ 0.25

Variant	enrichment ratio
PMIP	≤ 0.25
QYPL	≤ 0.25
YGTH	≤ 0.25
FQEV	≤ 0.25
SLNE	≤ 0.25
SSPG	≤ 0.25
TSIL	≤ 0.25
WWTI	≤ 0.25
FCDI	≤ 0.25
ENQY	≤ 0.25
HKIM	≤ 0.25
ILFW	≤ 0.25
VDGN	≤ 0.25
HDTT	≤ 0.25
NVQP	≤ 0.25
EKYY	≤ 0.25
QFTR	≤ 0.25
WRAN	≤ 0.25
EHFY	≤ 0.25
FILC	≤ 0.25
IWDL	≤ 0.25
MAHA	≤ 0.25
KRQY	≤ 0.25
RMVE	≤ 0.25

Variant	enrichment ratio
MGFW	≤ 0.25
KATE	≤ 0.25
FKGL	≤ 0.25
TIIE	1.03
FTSR	0.29
FLIS	≤ 0.25
DINH	≤ 0.25
FHEY	≤ 0.25
AMPD	≤ 0.25
DSVH	≤ 0.25
RHAE	≤ 0.25
MMIE	≤ 0.25
HGFR	≤ 0.25
VDLY	≤ 0.25
NRQM	≤ 0.25
RTNN	≤ 0.25
PRWE	≤ 0.25
VDEW	≤ 0.25
MGGY	6.28
LQDQ	≤ 0.25
LLKS	≤ 0.25
DHLG	≤ 0.25
FMIR	0.369
VYIK	≤ 0.25

Variant	enrichment ratio
LLPR	≤ 0.25
WNSP	≤ 0.25
QSWW	≤ 0.25
LQVQ	≤ 0.25
VLQV	≤ 0.25
WIPN	≤ 0.25
MIGN	5.31
WSHQ	≤ 0.25
FTAG	≤ 0.25
PTLS	≤ 0.25
YEEI	≤ 0.25
EPCC	≤ 0.25
FFYA	≤ 0.25
GFAR	≤ 0.25
DFYW	≤ 0.25
RRIM	≤ 0.25
QTHY	≤ 0.25
YNKD	≤ 0.25
RATQ	≤ 0.25
VMPR	≤ 0.25
MYDA	≤ 0.25
HSLL	11.1
ERHF	≤ 0.25
MAAD	≤ 0.25

Variant	enrichment ratio
YSMI	7.06
EICD	≤ 0.25
NNPG	≤ 0.25
WGSH	≤ 0.25
KHEN	≤ 0.25
DRKL	≤ 0.25
DEWY	≤ 0.25
QART	≤ 0.25
AWGW	≤ 0.25
KIQQ	≤ 0.25
QNCW	≤ 0.25
SCQY	≤ 0.25
IEED	≤ 0.25
NIFM	≤ 0.25
PDVC	≤ 0.25
PPDT	≤ 0.25
ERKC	≤ 0.25
GWWY	≤ 0.25
IGYE	≤ 0.25
LAPQ	≤ 0.25
DDAF	≤ 0.25
IWTE	≤ 0.25
RSAS	≤ 0.25
YYPQ	≤ 0.25

Variant	enrichment ratio
PTDF	≤ 0.25
REEM	≤ 0.25
NIAH	≤ 0.25
KKCD	≤ 0.25
DSRI	≤ 0.25
LYYS	≤ 0.25
DLFC	≤ 0.25
DCAG	≤ 0.25
VIQG	≤ 0.25
EHVM	≤ 0.25
FQEK	≤ 0.25
WFTC	≤ 0.25
YGPL	≤ 0.25
VFGP	≤ 0.25
IPWV	≤ 0.25
YLSN	0.298
HYAP	≤ 0.25
QHPE	≤ 0.25
YGGI	≤ 0.25
DTGP	≤ 0.25
HDEC	≤ 0.25
IGAI	≤ 0.25
WPMS	≤ 0.25
FTTN	≤ 0.25

Variant	enrichment ratio
FEVM	11.6
FQAE	≤ 0.25
VNPV	≤ 0.25
QAMA	≤ 0.25
ECRT	≤ 0.25
FPMF	≤ 0.25
LIYP	≤ 0.25
TGQV	6.45
MIRH	≤ 0.25
HPKL	≤ 0.25
DDNS	≤ 0.25
VGQY	≤ 0.25
FEAE	≤ 0.25
YVSF	0.358
LFQW	≤ 0.25
ANNI	0.277
PKDF	≤ 0.25
IHDE	≤ 0.25
KEYD	≤ 0.25
DADW	≤ 0.25
QHIS	≤ 0.25
EIRW	≤ 0.25
MHDP	≤ 0.25
GAWN	≤ 0.25

Variant	enrichment ratio
VRLG	≤ 0.25
GTNE	≤ 0.25
ARFR	≤ 0.25
WRHL	≤ 0.25
GKSL	≤ 0.25
QCKL	≤ 0.25
VFDE	≤ 0.25
GMIN	≤ 0.25
GALR	≤ 0.25
GLVM	16.2
FCQF	1.3
GLSL	11.5
EEYM	≤ 0.25
DACS	≤ 0.25
SVVQ	2.72
NDPR	≤ 0.25
HPLP	≤ 0.25
SMHK	≤ 0.25
HGKK	≤ 0.25
HRIY	≤ 0.25
SVGW	14.4
INVC	≤ 0.25
PRWP	≤ 0.25
ILPE	≤ 0.25

Variant	enrichment ratio
KPPI	≤ 0.25
NKSA	≤ 0.25
GGLM	2.85
FRSI	≤ 0.25
QTDS	8.33
VRKK	≤ 0.25
LAQF	≤ 0.25
IRIF	≤ 0.25
MFRM	≤ 0.25
PKRG	≤ 0.25
MTTQ	≤ 0.25
WFVV	≤ 0.25
YEAP	≤ 0.25
NYLS	≤ 0.25
RVKN	≤ 0.25
QVFS	≤ 0.25
SPVG	≤ 0.25
VRDN	≤ 0.25
FCGL	≤ 0.25
MTDM	≤ 0.25
ECCH	≤ 0.25
GSSW	≤ 0.25
LERE	≤ 0.25
PPGR	≤ 0.25

Variant	enrichment ratio
MLDI	≤ 0.25
SGHR	≤ 0.25
NTTN	≤ 0.25
ESRD	≤ 0.25
DVLA	≤ 0.25
GCSA	≤ 0.25
PADR	≤ 0.25
LYDK	≤ 0.25
YNEP	≤ 0.25
EMKR	≤ 0.25
TLNV	4.05
KSAK	≤ 0.25
VGVS	≤ 0.25
VQMM	≤ 0.25
RSLC	≤ 0.25
DLAW	≤ 0.25
YYIA	≤ 0.25
HSCA	≤ 0.25
